Each structure is given as a SMILES string. The whole screen tested about 52,000 compounds, of which about 4,300 (8.3%) were called active. Cut-off read from the data, not from the text of the source: active = survival mostly below about 52% (no sharp cut-off); inactive = mostly above about 56%. Some of the results follow.

This assay has as its system DeltatarO mutant. Put plainly: growth inhibition of S. aureus wild type versus tarO mutant, primary screen, teichoic acid synthesis inhibitors, RN4220, OD600 (AID 463173). To be noted: OD600, 18 h, stronger effect = lower value, screened at 18.75 µg/mL (by protocol).
Consider `O=C(CN(c1cccc(Br)c1)S(=O)(=O)c1ccccc1)N1CCc2ccccc2C1`, for which the survival is inactive: 86%. As for `COCCNC(=O)c1c(NC(=O)Cc2coc3cc(C)ccc23)sc2c1CCCC2`, the survival was inactive: 58%. Then `Cc1nnc(N2CCN(c3ccccc3F)CC2)c2c1nnn2Cc1ccc(F)cc1`, with inactive: 89%; and `CCOc1ccccc1NC(=O)C(NS(=O)(=O)c1cccc2nsnc12)c1ccccc1` (stereo not drawn), with inactive: 92%; and `COc1ccc(-n2ncc(C(=O)N3CCN(c4ccccn4)CC3)c2C2CCN(C(=O)OC(C)(C)C)CC2)cc1`, with inactive: 78%.

For the compound `CCC(CC)c1nn2c(=O)cc(COc3ccc(NC(=O)c4ccc(Cl)cc4)cc3)nc2s1`, the survival was inactive: 99%. As for `O=C(OCc1ccccn1)c1ccc(COc2ccccc2Cl)o1`, the survival is inactive: 99%. Then `CCCCNc1nc(Oc2ccc(=O)n(-c3ccccc3)n2)nc(N(C)C)n1`, with inactive: 78%; and `CCN(CC)c1cc2c(cc1F)c(=O)c(S(=O)(=O)c1cc(C)ccc1C)cn2Cc1ccccc1`, with inactive: 77%; and `Cc1ccoc1C(=O)NCc1occc1C(=O)O`, with inactive: 85%.

In the case of `O=S(=O)(c1ccccc1)N1CCCc2ccccc21`, the survival is inactive: 110%. Then `CCOc1ccccc1-n1nnc(-c2nc(-c3ccccc3)no2)c1N`, with inactive: 86%; and `CCOc1ccc(C2=NC(c3cccs3)=Nc3ccc(C(C)C)cc3N2)cc1`, with inactive: 58%.

`CC(C)(Cc1nc2ccccc2[nH]1)c1nc2ccccc2[nH]1`: the survival is inactive: 97%. Under `N#Cc1c(N2CCOCC2)nc(N2CCOCC2)c2c1CCN(Cc1ccccc1)C2` stands inactive: 83%; under `CCOC(=O)c1c(NC(=O)c2ccc(S(=O)(=O)N(CCOC)CCOC)cc2)sc2c1CC(C)(C)NC2(C)C`, inactive: 78%. Under `Cc1ccccc1NS(=O)(=O)c1ccc(Br)s1` stands inactive: 109%. Then `C=CCNC(=O)c1ccc(N2C(=O)c3ccccc3C2=O)cc1`, with inactive: 92%; and `Cc1ccc(C(C)(C)C)c(OCC(=O)NCCc2nc3ccccc3[nH]2)c1`, with inactive: 70%; and `CC(C)(C)S(=O)(=O)c1cccc2ccccc12`, with inactive: 99%. For the compound `CC1CCN(C(=O)Cn2nnc3ccccc3c2=O)CC1`, the survival was inactive: 102%. Consider `COc1ccc(CCN2C(=O)c3oc4ccc(F)cc4c(=O)c3C2c2ccc(C(C)(C)C)cc2)cc1` (stereo not drawn), for which the survival was inactive: 73%. Then `CCc1cccc(C)c1NC(=O)Cn1ccn(-c2ccc(F)cc2)c(=O)c1=O`, with inactive: 52%; and `CCOc1ccc(C2CC(=O)c3c([nH]c(C(=O)OCc4ccccc4)c3C)C2)cc1` (stereo not drawn), with inactive: 88%; and `Cc1nc2ccc(S(=O)(=O)N(C)CC(=O)Nc3ccc(Br)c(C)c3)cc2s1`, with inactive: 101%. As for `Cn1c(C(=O)OCC(=O)NC2CCCCC2)cc2sccc21`, the survival was inactive: 98%. Then `CCn1c2ccccc2c2cc(/C=N/NC(=O)c3ccncc3)ccc21`, with inactive: 87%; and `CCOC(=O)c1cccc(NC(=O)C2CCN(S(=O)(=O)c3ccc4c(c3)oc(=O)n4C)CC2)c1`, with inactive: 67%.

As for `COc1ccc(S(=O)(=O)N(CCc2ccccc2)CC(=O)Nc2cccc(OC)c2)cc1`, the survival is inactive: 133%. Under `CCc1ccc(C(=O)COC(=O)C(Cc2c[nH]c3ccccc23)NC(=O)c2ccc(Br)cc2)cc1` (stereo not drawn) stands inactive: 142%. Then `CCOc1ccc(C2c3cc(OCC)c(OCC)cc3CC(=O)N2c2ccc(C(=O)O)cc2)cc1OCC` (stereo not drawn), with inactive: 74%; and `COc1ccccc1N1CCN(c2ncnc3c2cnn3C)CC1`, with inactive: 83%; and `CC(C)(C)OC(=O)N1CCN(C(=O)OC(C)(C)C)CC1`, with inactive: 98%.

Consider `CCOc1ccccc1-n1cc2c(c1-c1ccc(OC)cc1)c(=O)n(C)c(=O)n2C`, for which the survival was inactive: 88%. Then `O=C(Nc1ccc(N2CCOCC2)cc1)c1ncn[nH]1`, with inactive: 86%; and `Cc1ccc(N(C)C(=O)C2CCN(S(=O)(=O)c3ccc4c(c3)CCCN4C(=O)C3CCC3)CC2)cc1`, with inactive: 94%. Then `COc1ccc(NC(=O)c2cn(-c3ccccc3)nc2-c2ccc(C)cc2)cc1`, with inactive: 63%; and `COC(=O)c1ccc(NC(=O)CN2CCN(c3ccc(Cl)cc3)CC2)cc1`, with inactive: 92%; and `O=C1CC(c2ccccc2)Cc2[nH]c(=O)c(C(=O)Nc3cccc(Cl)c3)cc21` (stereo not drawn), with active: 8%.

On to `Cc1ccccc1-c1nn2c(=O)cc(CN3CCN(C(=O)c4ccc(C(C)(C)C)cc4)CC3)nc2s1`, for which the survival is inactive: 97%. Under `O=C(CSc1nc(-c2ccccc2)no1)N1CCCCC1` stands active: 39%; under `CCOC(=O)N1CCc2c(sc3c2c(=O)n(CCc2ccccc2)c(=O)n3Cc2ccc(F)cc2)C1`, inactive: 100%. Under `COc1ccc(C(=O)CN2C(=O)N(c3ccc(C(C)=O)cc3)S(=O)(=O)c3ccccc32)cc1` stands inactive: 89%; under `O=C(O)CN(c1cccc(C(F)(F)F)c1)S(=O)(=O)c1ccccc1`, inactive: 58%; under `Cc1ccc(Cn2nnc(C(=O)Nc3ccc(F)c(F)c3)c2N)cc1`, inactive: 77%. Under `COc1ccc(S(=O)(=O)N2CCC(n3c(C(F)(F)F)nc4cccnc43)CC2)cc1OC` stands inactive: 67%; under `CCCOc1ccc(C2C3CN(CC)CC=C3C(C#N)=C(N)C2(C#N)C#N)cc1OC` (stereo not drawn), active: 0%; under `Cc1ccc(NC(=O)CN(C)S(=O)(=O)c2ccc3nc(C)sc3c2)c(C)c1`, inactive: 100%. Turning to `O=C(NC1CC2CCCC(C1)N2CC(=O)N1CCCc2ccccc21)c1ccccc1` (stereo not drawn), the survival was inactive: 85%. Regarding `COc1cc(NC(=O)CSc2nc3nc(C)c(Cc4ccc(C)cc4)c(C)n3n2)cc(OC)c1`, the survival is inactive: 94%.

In the case of `CCCSCCCNC(=O)c1ccc(Cn2c(=O)c3cccn3c3cccnc32)cc1`, the survival is inactive: 66%.

`CCC(=O)Nc1cccc(NC(=O)CSc2nnnn2C2CCCC2)c1`: the survival is inactive: 106%. Then `Cc1c(Cl)cccc1NC(=O)CN1C(=O)COc2ccc(S(=O)(=O)Nc3ccccc3)cc21`, with inactive: 60%; and `CCCOC(=O)CSc1nnc2ccc3ccccc3n12`, with inactive: 72%; and `CCOC(=O)c1cccc(NC(=O)C(C)n2c(C)c3cnn(-c4ccccc4)c(=O)c3c2C)c1` (stereo not drawn), with inactive: 105%. For the compound `COc1ccc(NC(=O)c2ccc3c(c2)CCN3S(=O)(=O)c2ccc(C)cc2)cc1Cl`, the survival is inactive: 107%. Under `CCC(Sc1nc2cc(OC)c(OC)cc2c(=O)n1CCc1ccc(Cl)cc1)C(=O)NCCOC` (stereo not drawn) stands inactive: 89%; under `CCOc1ccc(-c2cc(OC(=O)c3ccccc3)c3c(C)oc(C)c3c(=O)c2)cc1`, inactive: 64%; under `Cn1nnc2c(N3CCN(c4ccccc4F)CC3)ncnc21`, inactive: 83%. Under `COc1cc2nc(SCc3cccc(Cl)c3)n3nc(CCn4nc(C)cc4C)nc3c2cc1OC` stands inactive: 79%; under `Cc1cc(C)cc(OCC(=O)Nc2ccc(-c3nc4ccccc4s3)cc2)c1`, inactive: 68%; under `Cc1ccc(NC(=O)N(Cc2cn(C)c3ccccc23)C2CCCCC2)cc1C`, active: -13%. Under `Cc1ccccc1C(=O)Nc1cccc(C(=O)OCc2cc(=O)n3c4c(sc3n2)CCCC4)c1` stands active: 46%. As for `O=C(Nc1cccc(Cl)c1)N1CCC(n2nnc3cc(F)ccc32)CC1`, the survival was inactive: 97%. Then `CC(C)NC(=O)c1ccc(-n2c(-c3ccccc3)cc3c2CCCCC3)cc1`, with inactive: 108%; and `Nc1ncc(S(=O)(=O)NCc2ccc(Cl)cc2)cn1`, with inactive: 90%.

For the compound `COc1ccc(Cl)cc1NC(=O)Cn1cc(C(=O)c2ccncc2)c(=O)c2cc(C)ccc21`, the survival is inactive: 81%.

As for `Cc1ccc(Nc2c(-c3ccncc3)nc3ccc(C)cn23)cc1`, the survival is inactive: 102%.

Turning to `CCOc1ccc(OCC)c(S(=O)(=O)N2CCN(c3cccc(C)c3C)CC2)c1`, the survival was inactive: 118%.

Turning to `CCOC(=O)C1CCN(c2ncnc3c2nnn3C)CC1`, the survival is active: 37%. On to `Cc1ccc(CN(C(=O)COc2cccc([N+](=O)[O-])c2)c2ccccn2)cc1`, for which the survival is active: 39%. Then `Cc1ccc(-n2c(SCC(=O)NCc3ccc(F)cc3)nc3c([nH]c4ccccc43)c2=O)cc1`, with inactive: 88%; and `CCCCNC(=O)CSc1nc2cc3c(cc2c(=O)n1CCCCCC(=O)NCc1ccc2c(c1)OCO2)OCO3`, with inactive: 90%; and `COc1ccc(N(CC(=O)NCCc2ccccc2)S(=O)(=O)c2ccccc2)c(OC)c1`, with inactive: 57%.

As for `Cc1ccc2oc3c(c(=O)c2c1)C(c1ccccc1F)N(CCCN1CCOCC1)C3=O` (stereo not drawn), the survival is inactive: 75%. As for `COc1cc2c(cc1OC)C(COc1ccc(F)cc1)N(C(=O)Cc1ccc(F)cc1)CC2` (stereo not drawn), the survival is inactive: 74%.

Take `Cc1cc(C)cc(NC(=O)CCc2c(C)nn(-c3ccc(N4CCCC4)nn3)c2C)c1`: the survival is inactive: 74%. Then `O=S(=O)(c1ccccc1)c1nc(-c2ccc(Cl)cc2Cl)oc1N1CCCCCC1`, with inactive: 49%; and `COc1ccc(CNC(=O)Cn2nnc(-c3ccc(S(C)(=O)=O)cc3)n2)cc1`, with inactive: 73%. Under `CC(C)c1ccc(CNc2nc(-c3ccco3)nn2S(=O)(=O)c2ccc3ccccc3c2)cc1` stands inactive: 106%. On to `Cc1cc(C)cc(N2CCn3c2nc2c3c(=O)n(Cc3ccc(Cl)cc3)c(=O)n2C)c1`, for which the survival was inactive: 94%.

On to `CCCS(=O)(=O)c1ncc(Cl)c(C(=O)Nc2scc(-c3ccccc3)c2C(=O)OCC)n1`, for which the survival was active: 25%.

Consider `C#CCN1C(=O)C(O)(CC(=O)c2ccccc2)c2ccccc21` (stereo not drawn), for which the survival was inactive: 65%.

Consider `CCN1CCN(c2ccc(NS(=O)(=O)c3c(C)nc4sccn4c3=O)cc2Cl)CC1`, for which the survival is inactive: 108%. Then `COc1ccc(C2NC(=O)CS2)cc1` (stereo not drawn), with inactive: 92%. Then `CCOc1ccc(-n2c(C)nc3cc(C(=O)NCCC4=CCCCC4)ccc32)cc1`, with active: -4%. As to `COc1ccc(CNC(=O)CCC(=O)N2CCSc3ccccc32)cc1`, the survival is inactive: 97%. Then `COc1ccc(C(=O)CC2(O)C(=O)N(Cc3ccccc3Cl)c3ccccc32)cc1` (stereo not drawn), with inactive: 62%.

(Values after PubChem BioAssay AID463173 (ICCB-Longwood Screening Facility, Harvard Medical School, 2010).)
